Tested on: cervical carcinoma KB cell line
Experiment: In vitro cytotoxicity assay, KB cells
Assay type: cell-based
Method: The cell lines were cultured in culture medium as recommended by the cell supplier (ATCC or DSMZ). To each well of a flat bottom 96-well plate was added 1,000-2,000 cells in 100 μL of the culture medium. Conjugates were diluted into the culture medium using 3-fold dilution series and 100 μL were added per well. To determine the contribution of FRα-independent cytotoxicity, cells in some wells were pre-incubated with 2 μM huMOV19 antibody prior to the addition of conjugates (“blocked” or “+B”). Control wells containing cells and the medium but lacking the conjugates, as well as wells containing medium only, were included in each assay plate. Assays were performed in triplicate for each data point. The plates were incubated at 37° C. in a humidified 6% CO2 incubator for 5 to 6 days. Then the relative number of viable cells in each well was determined using either the Alamar Blue reagent according the manufacturer's protocol (Life Technologies) or the WST-8 based Cell Counting Kit-8 (Dojindo Molecular Technologies, Inc., Rockville, Md.). The apparent surviving fraction of cells in each well was calculated by first correcting for the medium background absorbance, and then dividing each value by the average of the values in the control wells (non-treated cells). The surviving fraction of cells was plotted against conjugate concentration in semi-log plots.

B1: huMOV19-C442-D4 (conjugate)
heavy: QVQLVQSGAEVVKPGASVKISCKASGYTFTGYFMNWVKQSPGQSLEWIGRIHPYDGDTFYNQKFQGKATLTVDKSSNTAHMELLSLTSEDFAVYYCTRYDGSRAMDYWGQGTTVTVSS[gap - human IgG1 constant region with changes]
light: DIVLTQSPLSLAVSLGQPAIISCKASQSVSFAGTSLMHWYHQKPGQQPRLLIYRASNLEAGVPDRFSGSGSKTDFTLTISPVEAEDAATYYCQQSREYPYTFGGGTKLEIKRTVAAPSVFIFPPSDEQLKSGTASVVCLLNNFYPREAKVQWKVDNALQSGNSQESVTEQDSKDSTYSLSSTLTLSKADYEKHKVYACEVTHQGLSSPVTKSFNRGEC
With B1 the “activity compared with the lysine-linked conjugate” value was “at least as active as the lysine-linked huMOV19-sulfo-SPDB-D1 conjugate”.

Reference: patent US10898579B2, “Conjugates of cysteine engineered antibodies” (priority 2015, dated 2021)
